The text below walks through data of paper PMC6919601, “Identification of Plasmodium dipeptidyl aminopeptidase allosteric inhibitors by high throughput screening” (PLoS ONE, 2019).

Values joined by “and” are separate entries in the source; they are usually repeats but may differ in a detail not shown here. Equal values may be shown once. Screen size: about 110,000 compounds; about 230 (0.21%) showed an effect of 50% or more. This is one part of the list.
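Also: 30 min substrate incubation versus DMSO and 10 µM JCP410 controls.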

The assay deals with DPAP1 (Plasmodium falciparum, UniProt Q8IIJ9). Put plainly: primary screen, percent inhibition; read by cleavage of a fluorogenic dipeptide substrate; higher = more effect of the substance. Also on record: species or system P. falciparum D10 trophozoite lysates; single well.
DPAP1, sequence (Q8IIJ9 whole entry, looked up): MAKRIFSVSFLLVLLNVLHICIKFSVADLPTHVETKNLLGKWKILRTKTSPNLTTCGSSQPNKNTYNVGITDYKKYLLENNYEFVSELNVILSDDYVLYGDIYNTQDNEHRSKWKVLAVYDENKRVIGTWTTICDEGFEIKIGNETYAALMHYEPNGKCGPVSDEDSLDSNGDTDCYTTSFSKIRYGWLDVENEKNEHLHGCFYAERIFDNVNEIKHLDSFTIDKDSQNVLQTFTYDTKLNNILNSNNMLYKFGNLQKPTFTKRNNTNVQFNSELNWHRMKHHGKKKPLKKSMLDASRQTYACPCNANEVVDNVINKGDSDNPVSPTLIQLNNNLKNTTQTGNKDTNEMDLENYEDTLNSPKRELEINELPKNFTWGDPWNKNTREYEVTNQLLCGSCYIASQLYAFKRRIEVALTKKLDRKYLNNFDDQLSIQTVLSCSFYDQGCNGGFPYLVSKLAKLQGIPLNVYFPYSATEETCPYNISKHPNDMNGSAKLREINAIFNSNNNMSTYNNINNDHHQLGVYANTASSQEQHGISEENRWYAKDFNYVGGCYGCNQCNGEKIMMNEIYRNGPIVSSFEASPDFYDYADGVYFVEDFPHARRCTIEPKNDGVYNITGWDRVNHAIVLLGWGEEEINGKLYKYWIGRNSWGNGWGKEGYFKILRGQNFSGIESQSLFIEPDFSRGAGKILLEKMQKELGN
In the case of `Cn1cc(CNC(=O)Cn2nc(C(F)(F)F)cc2C2CC2)cn1`, the “% Inhibition @ 10 uM” value was 0.431%.
With `CC(C)COC(=O)c1ccc2c(c1)C(=O)N(C1CCCCC1)C2=O` the figure was 0.343%; with `OCCN(Cc1ccccc1)Cc1ccccc1Cl`, -0.603%; with `Cc1ccc(CCNC(=O)C2CCC(CNc3c(N4CCC(C)CC4)c(=O)c3=O)CC2)cc1` (centres unmarked), -5.81%.
The result for `O=C(COc1cccc2ccccc12)Nc1cc(Cl)c(O)c(Cl)c1` reads -2.98%.
The result for `Cc1cccc(NC(=O)c2ccc(F)cc2)c1C` reads 0.467%; that for `CCOc1ccc(-c2cc(NC(=O)c3cc4ccc5cccnc5c4[nH]3)on2)cc1OCC`, -1.61%.
For the compound `COCc1cc(C)nc2sc(C(=O)Nc3ccc(OC)cc3)c(N)c12`, the “% Inhibition @ 10 uM” value is reported as -1.28%.
With `O=C(Nc1ccc(S(=O)(=O)N2CCN(c3ccc(F)cc3)CC2)cc1)c1ccco1` the figure was 0.361%.
With `COc1cccc(-c2noc(CCCC(=O)NC(C)C)n2)c1`, the “% Inhibition @ 10 uM” value came out at 2.21%.
With `NC(=O)C1CCN(C(=O)c2cc(-c3ccccc3Cl)on2)CC1` the figure was -3.33%.
The result for `Cc1ccc(-c2csc(N3N=C(c4ccccc4)CC3c3ccccc3)n2)cc1` (centres unmarked) reads -6.18%.
With `Cc1cc(O)nc(SCC(=O)Nc2ccc(Br)cc2)n1` the figure was 0.777%; with `CCOc1ccccc1C(=O)Nc1cccc(C)c1`, -0.796%; with `CCCCN(CC)CCCn1cnc2c3ccccc3nc-2c1O`, -0.0235%.
Turning to `CCC(C)NC(=O)CSc1ncccc1C(=O)OC(C)C` (centres unmarked), the “% Inhibition @ 10 uM” value is listed as -1.34%.
On to `Cc1cccc2sc(NC(=O)CCNS(=O)(=O)c3cc(Br)cnc3N)nc12`, for which the “% Inhibition @ 10 uM” value is given as -0.0652%.
On to `CCOc1cc(/C=C2\Oc3ccc(C(=O)OC)cc3C2=O)ccc1O`, for which the “% Inhibition @ 10 uM” value is recorded as -4.85%.
On to `COc1cccc(OC)c1C(=O)Nc1ccc(C)cc1`, for which the “% Inhibition @ 10 uM” value amounted to 7.78%.
The result for `COCCN1C(=O)/C(=C/c2ccc(SC)cc2)S/C1=N\c1ccccc1` reads -1.64%; that for `CCCCNC(=O)c1c(-c2ccccc2)noc1C`, 4.39%; that for `CC(=O)N[C@@H](CC1CCCCC1)C(=O)N[C@@H](C)C(=O)c1nc2ccccc2o1`, -5.43%.
With `Cc1ccc(Nc2nc(N)nc(CN3CCCCCC3)n2)cc1`, the “% Inhibition @ 10 uM” value worked out at 8.62%.
With `COc1ccc(C(=O)Nc2ccc(F)c(F)c2)cc1OC` the figure was 4.49%; with `CCOCCCNC(=O)c1ccc2c(c1)c(C)c(C)n2CC`, -2.12%.
Take `Nc1cc(-c2ccccc2)nc2ccccc12`: the “% Inhibition @ 10 uM” value is 0.162% and -2.82%.
As for `CCN(CC)c1ccc(C2Nc3ccccc3N=C3CC(C)(C)CC(O)=C32)cc1` (centres unmarked), the “% Inhibition @ 10 uM” value was found to be 3.48%.
The result for `Cn1cnc2cc(NC(=O)c3cccs3)ccc21` reads 0.83%; that for `Cc1ccc(SC(C)C(=O)N2CCN(c3ccc(F)cc3)CC2)cc1` (centres unmarked), -14.4%; that for `C=CCn1c(S)nnc1-c1ccccc1C`, -2.65%.
As to `Cc1nnc2c(N3CCc4ccccc4C3)nc3ccccc3n12`, the “% Inhibition @ 10 uM” value is -0.205%.
Consider `O=C(NCc1cccs1)C1=CCN(S(=O)(=O)c2ccc(F)cc2)CC1`, for which the “% Inhibition @ 10 uM” value is reported as -0.0745%.
With `Cc1ccc(S(=O)(=O)N(CCc2ccccc2)CC(=O)N2CCOCC2)cc1` the figure was -4.21%; with `O=C(N[C@@H](Cc1ccc2ccccc2c1)C(=O)N[C@@H](CCc1ccccc1)C(=O)c1nc2ccccc2o1)OCc1ccccc1`, 1.35%.
In the case of `CCNC(=O)NCc1nc(-c2ccc(OC)cc2)no1`, the “% Inhibition @ 10 uM” value is on record as -3.49%.
For `C=C(C)CN(CC)Cc1cc(Cl)ccc1O`, the “% Inhibition @ 10 uM” value came to 1.9%.
Regarding `COC(=O)c1ccc(/C=C2/C=C(c3ccc(C)cc3)OC2=O)cc1`, the “% Inhibition @ 10 uM” value is given as 1.84%.
Regarding `CC(C)NC(=O)Cn1ncc2c3ccccc3n(Cc3ccc(F)cc3)c2c1=O`, the “% Inhibition @ 10 uM” value is reported as -7.1%.
The result for `COc1ccc(Cl)cc1S(=O)(=O)N1CC(=O)N(CCc2ccccc2)C(=O)C1` reads 0.238%; that for `CCOc1ccc(CN2CCC(N3CCCCC3)CC2)cc1`, -3.37%.
For `CC(C)(C)NC(=O)c1cccc(NC(=O)c2ccc3c(c2)C(=O)N(Cc2cccnc2)C3=O)c1`, the “% Inhibition @ 10 uM” value is listed as -7.96%.
In the case of `COc1cccc2c1cc1c(=O)n(CC(=O)NCc3cccnc3)nc(C)n12`, the “% Inhibition @ 10 uM” value is on record as -5.32%.
Consider `Cc1cc(-c2ccc(C)c(S(=O)(=O)NC3CCN(Cc4ccccc4)CC3)c2)on1`, for which the “% Inhibition @ 10 uM” value is -4.51%.
The result for `COc1cc(C(=O)N2CCN(Cc3ccccc3F)CC2)cc(OC)c1OC` reads -2.32%.
With `O=S(=O)(c1ccc(-c2cc(C(F)(F)F)no2)s1)N1CCC(c2ccccc2)C1` (centres unmarked) the figure was 0.359%; with `Nc1ccccc1C(=O)NCCc1ccccc1`, -6.65%.
The result for `CCCCCCNc1nc2c(c(=O)n(C)c(=O)n2C)n1Cc1cc(OC)ccc1Cl` reads -3.24%; that for `O=C(NCCN1CCN(Cc2ccccc2)CC1)C1CC(=O)N(C2CCCC2)C1` (centres unmarked), -2.99%.
As for `Clc1ccccc1CCNC1CCN(Cc2ccccc2)CC1`, the “% Inhibition @ 10 uM” value is listed as 1.38%.
With `CN(C)c1ccc(C(=O)N2CCN(c3ccc(F)cc3)CC2)cc1` the figure was -2.22%.
